Source: PubChem BioAssay AID1454 (National Center for Advancing Translational Sciences (NCATS), 2008)
In all, about 130,000 compounds went through this assay and about 550 (0.42%) were called active. This list was built around the results that the source calls inconclusive (neither active nor inactive); the mix of calls is not that of the screen. The call rests on the fitted dose curve; in most records, active means well fitted inhibition curve with a large enough effect; inconclusive means small, poorly fitted or top-dose-only effect, or effect the other way; inactive means flat fitted curve, though single readings scatter. Potencies of inconclusive entries are left out as doubtful fits.

Assay: qHTS Assay for Inhibitors of the ERK Signaling Pathway using a Homogeneous Screening Assay; Stimulation with EGF; further: nearly all actives have a fitted effect of over 55% in size
Details: HEK293-V1b, EGF-stimulated phospho-ERK AlphaScreen
Description: NIH Chemical Genomics Center [NCGC]
NIH Molecular Libraries Screening Centers Network [MLSCN]
Assay Submitter (PI): Dr. Wei Zheng, NCGC/NIH
The Ras/extracellular-signal-regulated kinase (ERK) mitogen activated protein (MAP) kinase signaling pathway (ERK1/2 cascade) plays a key role in transmitting signals from the cell surface to the nucleus (Nishida and Gotoh 1993; Chang and Karin, 2001). The cascade is initiated by the small G-protein Ras, which recruits Raf from the cytosol, where activation occurs. Alternatively, this pathway can be activated by elevating intracellular cAMP, or by activation of a receptor tyrosine kinase as epidermal growth factor receptor.
Activation of the ERK pathway is essential in increased cell division and cell survival. Sustained and constitutive activation of the ERK pathway, however, has been linked to uncontrolled cell proliferation, increased cell survival, and tumor progression. Thus, the ERK has been as an attractive target for cancer chemotherapy in the past few years (Sebolt-Leopold and Herrera, 2004). Given its physiological and pathological importance, assessment of ERK phosphorylation has been broadly performed in both basic research and drug discovery. Most assays for the measurement of ERK phosphorylation use the antibody-based detection methods, such as western blot and ELISA. These assays require multiple reagent additions with cell wash steps and are not suitable for high throughout screening.
The current cell-based ERK phosphorylation assay was performed using AlphaScreen platform. AlphaScreen is a two bead-based proximity-dependent chemical energy transfer luminescent assay platform. The assay reagents (ERK SureFire(TM) kit) were supplied from TGR BioSciences (Australia). In the presence of specific antibodies, phosphorylated ERK will bring "donor" and "acceptor" beads to a proximity range (<200 nm), and subsequently lead a chemical luminescent reaction upon exciting donor beads with 680 nm laser. To exclude the assay-related false positives, we used a biotinylated rabbit IgG to perform counter-screen. The biotinylated antibody mimics the phosphorylated ERK1/2 for bringing streptavidin coated beads and protein-A coated beads to a proximity range for the AlphaScreen detection.
NCGC Assay Protocol Summary:
HEK293 cells stably expressing type-1 vasopressin receptor (V1b) were maintained in DMEM medium (Invitrogen, Carlsbad, CA) at 37C under a humidified atmosphere containing 5% CO2 and 95% air. The medium contained 10% FBS, 2 mM L-glutamine, non-essential amino acid, pyruvate and 50 U/ml penicillin and 50 ug/ml streptomycin (Invitrogen). The aliquots of frozen cells were stored at -135C and used for the compound screening. All compounds were screened as titrations from 0.6 nM to 46 uM final concentration. Epidermal growth factor (EGF) was used to stimulate the ERK phosphorylation pathway. The ERK phosphorylation in cells was determined using an AlphaScreen assay kit provided by […]. Data were normalized to the controls for basal activity (DMSO only) and 100% activation (25 nM EGF). AC50 values were determined from concentration-response data modeled with the standard Hill equation.
(1) Seed 4 ul/well of resuspended frozen HEK293 cells containing 2000 cells in white 1536-well plates for overnight with 1% FBS at 37C under a humidified atmosphere containing 5% CO2 and 95% air.
(2) Add 23 nL compounds in DMSO solution. The final titration was 0.6 nM to 46 uM.
(3) Incubate at 37C for 30 min.
(4) Dispense 0.5uL EGF (25 nM in final)
(5) Incubate at 37C for 5 min.
(6) Dispense 0.5uL of 1:2 diluted 5x lysis buffer.
(7) Incubate at 37C for 10 min.
(8) Dispense 1.5uL of mixture of activation buffer and reaction buffer with AlphaScreen beads (streptavidin donor beads and protein-A acceptor beads, 10 ng/well for each).
(9) Incubate at room temperature for 5 hr.
(10) Detect the assay plate in an EnVision plate reader (PerkinElmer) using the AlphaScreen detection mode.
[…]
Potency means the concentration at half of the fitted maximal effect; tags describe the fitted curve by direction and shape.

Compound | Potency
Cc1noc(C)c1N=Nc1ccc(Br)cc1C(=O)O | inconclusive [inhibitor, single point]
CC1(C)CNC(=O)c2sc(NC(=O)c3ccccc3Cl)nc2C1 | inactive
COc1ccc(CCNC(=O)Nc2ccccc2[N+](=O)[O-])cc1 | inconclusive [inhibitor, single point]
Cc1cs/c(=N\N=C\c2ccccc2)n1Cc1ccco1 | inconclusive [inhibitor, partial curve]
O=C(COC(=O)/C=C/c1cccc(F)c1)Nc1ncccn1 | inconclusive [inhibitor, full curve, poor fit]
O=C(CCc1nc2ccccc2[nH]1)NCc1ccc2c(c1)OCO2 | inconclusive [inhibitor, partial curve]
Cc1ccc2nc(NCc3ccccc3)c(C=NCc3cccnc3)c(=O)n2c1 | inconclusive [inhibitor, single point]
O=C(O)c1cccc(NC2=C(Cl)C(=O)c3ccccc3C2=O)c1 | inconclusive [inhibitor, single point]
CCOC(=O)c1c(C)[nH]c(N=Nc2ccccc2Cl)c1C | inconclusive [inhibitor, partial curve]
CC1(C)C(=O)OC(c2c3ccccc3cc3ccccc23)C(C)(C)C1=O (stereo not drawn) | inconclusive [activator, single point]
O=C(NC(Cc1ccccc1)c1nc2ccccc2[nH]1)c1cccc([N+](=O)[O-])c1 (stereo not drawn) | inconclusive [inhibitor, single point]
CCCC(=O)Nc1nnc(-c2ccccc2)o1 | inactive
O=S(=O)(c1ccc(Cl)c(NC(=S)Nc2ccccc2N2CCOCC2)c1)N1CCOCC1 | inactive
Cc1cccc(N=Nc2c(C)[nH]n(-c3ccccc3)c2=O)c1 | active: 7.08 µM
COc1ccc2nc(SC)c(C#N)cc2c1 | inactive
Cc1cc(/C=C2\SC(=S)N(C)C2=O)c(C)n1-c1ccc(O)cc1 | inconclusive [inhibitor, partial curve, poor fit]
CCN1CCN(C(c2ccccc2)c2sc3nc(C)nn3c2O)CC1 (stereo not drawn) | inconclusive [inhibitor, partial curve, poor fit]
COC(=O)[C@@H]1C[C@@]2(O)[C@@H](O)[C@@H](O)[C@@H](O)C[C@H]2N1Cc1ccc(C(C)(C)C)cc1 | inactive
O=S(=O)(c1ccccc1)N1CCC2(CCN(c3cccc(-c4ccccc4)c3)CC2)CC1 | inconclusive [inhibitor, partial curve, poor fit]
COc1cccc(CN2CCC(N(CCc3ccccc3)Cc3ccccc3)CC2)c1OC | inconclusive [inhibitor, single point]
CC(=O)O[C@]1(C(C)=O)CC[C@H]2C3C=C(Cl)C4=CC(=O)[C@@H]5C[C@H]5[C@]4(C)C3CC[C@@]21C (stereo partly drawn) | inactive
COc1ccc(NC(=O)Nc2nnc(-c3ccncc3)s2)cc1 | inconclusive [inhibitor, single point]

Compound | Potency
C[C@@](Cc1ccccc1)(NC(=O)CN)c1ccccc1 | inactive
Cc1ccc(F)cc1CNC(=O)c1cc(COc2ccc3ncccc3c2)on1 | inconclusive [inhibitor, single point]
COc1cccc2sc(NNC(=O)c3nc4ccccc4s3)nc12 | inconclusive [inhibitor, single point]
O=C(CSc1nncn1-c1cccnc1)N(c1ccccc1)c1ccccc1 | inactive
CCN1CCN(C(=O)C(C)Nc2cc(Cl)c(OC)cc2OC)CC1 (stereo not drawn) | inactive
Cc1cc(N=Nc2ccccc2)c(NCC(O)C(O)C(O)CO)cc1C (stereo not drawn) | inconclusive [inhibitor, single point]
COc1ccc(NC(=O)COC(=O)/C=C/C(=O)OCC(=O)Nc2ccc(OC)c(Cl)c2)cc1Cl | inactive
N#Cc1c(Nc2ccccc2C(F)(F)F)s[nH]c1=O | inconclusive [inhibitor, partial curve]
O=C(O)CCCN1C(=O)/C(=C\c2ccc(-c3nc4ccccc4s3)o2)SC1=S | inconclusive [inhibitor, single point]
O=c1c(C(c2ccccc2)c2c(O)sc3ccccc3c2=O)c(O)sc2ccccc12 | inconclusive [inhibitor, single point]
COc1ccc(Cn2c(C(C)C)nc3sc4ccccc4c(=O)c3c2=O)cc1 | inconclusive [inhibitor, single point]
COc1cc(CNc2nc(C)c([N+](=O)[O-])c(C)c2C#N)cc(OC)c1OC | inconclusive [inhibitor, single point]
CC(=O)OCC1=C(C(=O)O)N2C(=O)C(NC(=O)C(C)Cn3cc(Cl)cn3)C2SC1 (stereo not drawn) | inconclusive [inhibitor, single point]
CCOC(=O)C1=C(C)NC(C)=C(C(=O)OC)C1c1cccc([N+](=O)[O-])c1 (stereo not drawn) | inconclusive [inhibitor, single point]
O=C(NNc1ncnc2ccccc12)c1cccc(Cl)c1 | inconclusive [inhibitor, full curve]
c1ccc2c(c1)nc(N1CCCCCC1)c1ccccc12 | inconclusive [activator, single point]
COc1cc(CNC(C)(C)CO)cc(Br)c1OCc1ccc(Cl)cc1 | inconclusive [inhibitor, single point]
O=c1oc2ccccc2cc1-c1csc(NN=C2CCCC2)n1 | inconclusive [activator, partial curve]
CCOc1ccc(-n2c(=O)[nH]c3sc4c(c3c2=O)CCCC4)cc1 | inconclusive [inhibitor, single point]
N#Cc1ccc(-c2cn(-c3ccccc3)c3[n+]2CCCS3)cc1 | inconclusive [inhibitor, single point]
CN1CCN(CCCNC(=O)c2ccc(/C=C3\Sc4ccccc4N(Cc4ccc(F)cc4)C3=O)cc2)CC1 | inconclusive [inhibitor, single point]
